# In the supplement of paper PMC8728848:
# The list shows a part of the results.
# B1: Pwp3 (Candida glabrata) (protein)
# chain: MGSSHHHHHHSSGLVPRGSHMASKNPVDFTTVCQFPDNFSKKPGFLATTARLGLWITGNSYKELLNYPGTFTLTTQQASTTTPNIQLRGTDLFTTIYGLTVYPLYLLVELQGYFVPTQSGMYTFSLTGSDDAAIIFIGNPSTFPCDAFKTWPQATANDITVTDSINPSRTLYMVKGVAYPLRIAYYNGLGNGVLNAAFTDPSGTKRTDWNGYIWQYDQCSTCTYK
# Columns and labels:
# Experiment in all cases: glycan array binding signal (z-score within array); higher = stronger binding
# Conditions in all cases: glycan notation: IUPAC condensed, linker removed
# [1] = target: Fuc(a1-2)Gal6S(b1-3)GlcNAc6S
# Procedure, shortened: (§1)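 From the Consortium for Functional Glycomics database, 3228 arrays were curated, keeping only those whose protein sequence was available. Binding is given as a within-array Z-score averaged across arrays sharing a protein sequence and across linkers. Negative Z-scores can be read as non-binding.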
# Fuc(a1-2)Gal6S(b1-4)Glc = target: Fuc(a1-2)Gal6S(b1-4)Glc
# Procedure, shortened: as §1
# [2] = target: Fuc(a1-2)Gal6S(b1-4)Glc6S
# Procedure, shortened: as §1
# Fuc(a1-2)[Gal(a1-3)]Gal = target: Fuc(a1-2)[Gal(a1-3)]Gal
# Procedure, shortened: as §1
# [3] = target: Fuc(a1-2)[Gal(a1-3)]Gal(b1-3)GalNAc
# Procedure, shortened: as §1
# [4] = target: Fuc(a1-2)[Gal(a1-3)]Gal(b1-3)GalNAc(b1-3)Gal(a1-4)Gal(b1-4)Glc
# Procedure, shortened: as §1
# [5] = target: Fuc(a1-2)[Gal(a1-3)]Gal(b1-3)GlcNAc
# Procedure, shortened: as §1
# [6] = target: Fuc(a1-2)[Gal(a1-3)]Gal(b1-3)GlcNAc(b1-2)Man(a1-3)[Fuc(a1-2)[Gal(a1-3)]Gal(b1-3)GlcNAc(b1-2)Man(a1-6)]Man(b1-4)GlcNAc(b1-4)GlcNAc
# Procedure, shortened: as §1
# [7] = target: Fuc(a1-2)[Gal(a1-3)]Gal(b1-3)GlcNAc(b1-2)Man(a1-3)[Fuc(a1-2)[Gal(a1-3)]Gal(b1-3)GlcNAc(b1-2)Man(a1-6)]Man(b1-4)GlcNAc(b1-4)[Fuc(a1-6)]GlcNAc
# Procedure, shortened: as §1
# [8] = target: Fuc(a1-2)[Gal(a1-3)]Gal(b1-3)GlcNAc(b1-3)GalNAc
# Procedure, shortened: as §1
# [9] = target: Fuc(a1-2)[Gal(a1-3)]Gal(b1-3)GlcNAc(b1-6)GalNAc
# Procedure, shortened: as §1
# [10] = target: Fuc(a1-2)[Gal(a1-3)]Gal(b1-4)Glc
# Procedure, shortened: as §1
# [11] = target: Fuc(a1-2)[Gal(a1-3)]Gal(b1-4)GlcNAc
# Procedure, shortened: as §1
# [12] = target: Fuc(a1-2)[Gal(a1-3)]Gal(b1-4)GlcNAc(b1-2)Man
# Procedure, shortened: as §1
# [13] = target: Fuc(a1-2)[Gal(a1-3)]Gal(b1-4)GlcNAc(b1-2)Man(a1-3)[Fuc(a1-2)[Gal(a1-3)]Gal(b1-4)GlcNAc(b1-2)Man(a1-6)]Man(b1-4)GlcNAc(b1-4)GlcNAc
# Procedure, shortened: as §1
# [14] = target: Fuc(a1-2)[Gal(a1-3)]Gal(b1-4)GlcNAc(b1-2)Man(a1-3)[Fuc(a1-2)[Gal(a1-3)]Gal(b1-4)GlcNAc(b1-2)Man(a1-6)]Man(b1-4)GlcNAc(b1-4)[Fuc(a1-6)]GlcNAc
# Procedure, shortened: as §1
# [15] = target: Fuc(a1-2)[Gal(a1-3)]Gal(b1-4)GlcNAc(b1-3)GalNAc
# Procedure, shortened: as §1
# [16] = target: Fuc(a1-2)[Gal(a1-3)]Gal(b1-4)GlcNAc(b1-3)[Fuc(a1-2)[Gal(a1-3)]Gal(b1-4)GlcNAc(b1-6)]GalNAc
# Procedure, shortened: as §1
# [17] = target: Fuc(a1-2)[Gal(a1-3)]Gal(b1-4)GlcNAc(b1-6)GalNAc
# Procedure, shortened: as §1
# [18] = target: Fuc(a1-2)[Gal(a1-3)]Gal(b1-4)[Fuc(a1-3)]Glc
# Procedure, shortened: as §1
# [19] = target: Fuc(a1-2)[Gal(a1-3)]Gal(b1-4)[Fuc(a1-3)]GlcNAc
# Procedure, shortened: as §1
# [20] = target: Fuc(a1-2)[Gal(a1-3)]Gal(b1-4)[Fuc(a1-3)]GlcNAc(b1-3)GalNAc
# Procedure, shortened: as §1
# [21] = target: Fuc(a1-2)[Gal(a1-4)]Gal(b1-4)GlcNAc
# Procedure, shortened: as §1
# [22] = target: Fuc(a1-2)[GalNAc(a1-3)]Gal
# Procedure, shortened: as §1
# [23] = target: Fuc(a1-2)[GalNAc(a1-3)]Gal(b1-3)GalNAc(a1-3)[Fuc(a1-2)]Gal(b1-4)GlcNAc
# Procedure, shortened: as §1
# [24] = target: Fuc(a1-2)[GalNAc(a1-3)]Gal(b1-3)GalNAc(b1-3)Gal(a1-4)Gal(b1-4)Glc
# Procedure, shortened: as §1
# [25] = target: Fuc(a1-2)[GalNAc(a1-3)]Gal(b1-3)GlcNAc
# Procedure, shortened: as §1
# [26] = target: Fuc(a1-2)[GalNAc(a1-3)]Gal(b1-3)GlcNAc(b1-2)Man(a1-3)[Fuc(a1-2)[GalNAc(a1-3)]Gal(b1-3)GlcNAc(b1-2)Man(a1-6)]Man(b1-4)GlcNAc(b1-4)GlcNAc
# Procedure, shortened: as §1
# [27] = target: Fuc(a1-2)[GalNAc(a1-3)]Gal(b1-3)GlcNAc(b1-2)Man(a1-3)[Fuc(a1-2)[GalNAc(a1-3)]Gal(b1-3)GlcNAc(b1-2)Man(a1-6)]Man(b1-4)GlcNAc(b1-4)[Fuc(a1-6)]GlcNAc
# Procedure, shortened: as §1
# [28] = target: Fuc(a1-2)[GalNAc(a1-3)]Gal(b1-3)GlcNAc(b1-3)GalNAc
# Procedure, shortened: as §1
# [29] = target: Fuc(a1-2)[GalNAc(a1-3)]Gal(b1-3)GlcNAc(b1-6)GalNAc
# Procedure, shortened: as §1
# [30] = target: Fuc(a1-2)[GalNAc(a1-3)]Gal(b1-4)Glc
# Procedure, shortened: as §1
# [31] = target: Fuc(a1-2)[GalNAc(a1-3)]Gal(b1-4)GlcNAc
# Procedure, shortened: as §1
# [32] = target: Fuc(a1-2)[GalNAc(a1-3)]Gal(b1-4)GlcNAc(b1-2)Man
# Procedure, shortened: as §1
# [33] = target: Fuc(a1-2)[GalNAc(a1-3)]Gal(b1-4)GlcNAc(b1-2)Man(a1-3)[Fuc(a1-2)[GalNAc(a1-3)]Gal(b1-4)GlcNAc(b1-2)Man(a1-6)]Man(b1-4)GlcNAc(b1-4)GlcNAc
# Procedure, shortened: as §1
# [34] = target: Fuc(a1-2)[GalNAc(a1-3)]Gal(b1-4)GlcNAc(b1-2)Man(a1-3)[Fuc(a1-2)[GalNAc(a1-3)]Gal(b1-4)GlcNAc(b1-2)Man(a1-6)]Man(b1-4)GlcNAc(b1-4)[Fuc(a1-6)]GlcNAc
# Procedure, shortened: as §1
# [35] = target: Fuc(a1-2)[GalNAc(a1-3)]Gal(b1-4)GlcNAc(b1-3)Gal(b1-4)GlcNAc
# Procedure, shortened: as §1
# [36] = target: Fuc(a1-2)[GalNAc(a1-3)]Gal(b1-4)GlcNAc(b1-3)Gal(b1-4)GlcNAc(b1-3)Gal(b1-4)GlcNAc
# Procedure, shortened: as §1
# [37] = target: Fuc(a1-2)[GalNAc(a1-3)]Gal(b1-4)GlcNAc(b1-3)GalNAc
# Procedure, shortened: as §1
# [38] = target: Fuc(a1-2)[GalNAc(a1-3)]Gal(b1-4)GlcNAc(b1-3)[Fuc(a1-2)[GalNAc(a1-3)]Gal(b1-4)GlcNAc(b1-6)]GalNAc
# Procedure, shortened: as §1
# [39] = target: Fuc(a1-2)[GalNAc(a1-3)]Gal(b1-4)GlcNAc(b1-6)GalNAc
# Procedure, shortened: as §1
# [40] = target: Fuc(a1-2)[GalNAc(a1-3)]Gal(b1-4)[Fuc(a1-3)]GlcNAc
# Procedure, shortened: as §1
# [41] = target: Fuc(a1-2)[GalNAc(a1-3)]Gal(b1-4)[Fuc(a1-3)]GlcNAc(b1-3)GalNAc
# Procedure, shortened: as §1
# [42] = target: Fuc(a1-2)[GalNAc(a1-4)]Gal(b1-4)GlcNAc
# Procedure, shortened: as §1
# [43] = target: Fuc(a1-2)[GalNAc(b1-3)]Gal
# Procedure, shortened: as §1
binder,measurement,setting,value
B1,glycan array binding signal (z-score),[1],-0.093
same,glycan array binding signal (z-score),Fuc(a1-2)Gal6S(b1-4)Glc,-0.444
same,glycan array binding signal (z-score),[2],-0.148
same,glycan array binding signal (z-score),Fuc(a1-2)[Gal(a1-3)]Gal,-0.371
same,glycan array binding signal (z-score),[3],0.487
same,glycan array binding signal (z-score),[4],0.266
same,glycan array binding signal (z-score),[5],-0.13
same,glycan array binding signal (z-score),[6],-0.212
same,glycan array binding signal (z-score),[7],-0.189
same,glycan array binding signal (z-score),[8],-0.312
same,glycan array binding signal (z-score),[9],4.02
same,glycan array binding signal (z-score),[10],-0.227
same,glycan array binding signal (z-score),[11],-0.219
same,glycan array binding signal (z-score),[12],-0.453
same,glycan array binding signal (z-score),[13],-0.392
same,glycan array binding signal (z-score),[14],-0.289
same,glycan array binding signal (z-score),[15],-0.138
same,glycan array binding signal (z-score),[16],-0.713
same,glycan array binding signal (z-score),[17],-0.219
same,glycan array binding signal (z-score),[18],0.009
same,glycan array binding signal (z-score),[19],-0.258
same,glycan array binding signal (z-score),[20],-1.06
same,glycan array binding signal (z-score),[21],0.213
same,glycan array binding signal (z-score),[22],0.148
same,glycan array binding signal (z-score),[23],-0.194
same,glycan array binding signal (z-score),[24],-0.392
same,glycan array binding signal (z-score),[25],-0.709
same,glycan array binding signal (z-score),[26],-0.178
same,glycan array binding signal (z-score),[27],-0.184
same,glycan array binding signal (z-score),[28],-0.434
same,glycan array binding signal (z-score),[29],1.57
same,glycan array binding signal (z-score),[30],-0.522
same,glycan array binding signal (z-score),[31],0.301
same,glycan array binding signal (z-score),[32],-0.236
same,glycan array binding signal (z-score),[33],3.9
same,glycan array binding signal (z-score),[34],-0.387
same,glycan array binding signal (z-score),[35],-0.031
same,glycan array binding signal (z-score),[36],0.245
same,glycan array binding signal (z-score),[37],3.75
same,glycan array binding signal (z-score),[38],-0.186
same,glycan array binding signal (z-score),[39],-0.651
same,glycan array binding signal (z-score),[40],-0.332
same,glycan array binding signal (z-score),[41],2.49
same,glycan array binding signal (z-score),[42],-1.2
same,glycan array binding signal (z-score),[43],-1.01
